Results are given in words; binding and its absence hold for the method and conditions named. In cells and extracts the contact can be indirect. Some binding calls cover weakened binding; strength is not graded here. For part of these data: Tags and fused reporters may be left off the sequences shown.
Key:
[1] = molecular target: HA-NS5A (HCV JFH-1 nonstructural protein 5A), full-length NS5A (HCV genotype 2a, strain JFH-1) (UniProt Q99IB8); assay: co-IP; HEK293T cells co-transfected (calcium phosphate, 36 h); lysate incubated with the indicated tag antibody or control IgG, then protein A/G agarose; washed with 15 mM Tris pH 7.5, 500 mM NaCl, 2 mM EDTA, 0.5% Triton X-100; western blot
[2] = molecular target: T1, endogenous SPSB2 (human (endogenous in Huh7.5.1)) (UniProt Q99619); assay: co-IP; endogenous: Huh7.5.1 cells infected with HCV JFH-1 for 96 h; lysate immunoprecipitated with mouse anti-SPSB2 MAb or control mouse IgG; western blot with anti-NS5A and anti-SPSB2
T1 sequence: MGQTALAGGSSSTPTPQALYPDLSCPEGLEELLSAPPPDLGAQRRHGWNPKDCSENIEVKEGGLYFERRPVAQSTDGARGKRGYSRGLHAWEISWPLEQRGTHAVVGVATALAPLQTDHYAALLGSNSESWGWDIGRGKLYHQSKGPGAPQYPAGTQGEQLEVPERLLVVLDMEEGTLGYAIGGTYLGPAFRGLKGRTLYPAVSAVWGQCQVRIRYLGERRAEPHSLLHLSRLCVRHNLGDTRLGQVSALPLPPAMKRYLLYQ

Protein sequences, listed by entry. Tags and fused reporters are not part of them. Residues count along the entry.
Flag-E1 (HCV JFH-1 E1), full-length E1 (Q99IB8, residues 192-383): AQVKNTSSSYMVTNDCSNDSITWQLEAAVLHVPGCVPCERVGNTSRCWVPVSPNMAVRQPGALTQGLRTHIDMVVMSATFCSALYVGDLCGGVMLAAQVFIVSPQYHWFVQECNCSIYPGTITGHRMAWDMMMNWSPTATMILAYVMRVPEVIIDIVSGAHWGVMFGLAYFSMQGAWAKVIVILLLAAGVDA
HA-NS5A (HCV JFH-1 nonstructural protein 5A), full-length NS5A (Q99IB8, residues 1977-2442): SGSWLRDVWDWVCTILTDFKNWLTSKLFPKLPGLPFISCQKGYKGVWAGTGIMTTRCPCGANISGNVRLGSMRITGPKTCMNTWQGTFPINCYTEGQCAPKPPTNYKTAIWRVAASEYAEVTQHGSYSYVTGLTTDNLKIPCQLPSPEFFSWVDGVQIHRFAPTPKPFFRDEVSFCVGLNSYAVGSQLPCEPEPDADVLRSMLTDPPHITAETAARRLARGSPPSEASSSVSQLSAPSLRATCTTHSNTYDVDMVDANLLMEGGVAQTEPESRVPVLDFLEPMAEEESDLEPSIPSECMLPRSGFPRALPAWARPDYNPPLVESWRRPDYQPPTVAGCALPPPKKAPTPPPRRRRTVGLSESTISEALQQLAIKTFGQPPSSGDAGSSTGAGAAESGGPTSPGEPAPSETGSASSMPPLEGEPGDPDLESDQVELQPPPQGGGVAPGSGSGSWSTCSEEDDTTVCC
UniProt Q6PJ21: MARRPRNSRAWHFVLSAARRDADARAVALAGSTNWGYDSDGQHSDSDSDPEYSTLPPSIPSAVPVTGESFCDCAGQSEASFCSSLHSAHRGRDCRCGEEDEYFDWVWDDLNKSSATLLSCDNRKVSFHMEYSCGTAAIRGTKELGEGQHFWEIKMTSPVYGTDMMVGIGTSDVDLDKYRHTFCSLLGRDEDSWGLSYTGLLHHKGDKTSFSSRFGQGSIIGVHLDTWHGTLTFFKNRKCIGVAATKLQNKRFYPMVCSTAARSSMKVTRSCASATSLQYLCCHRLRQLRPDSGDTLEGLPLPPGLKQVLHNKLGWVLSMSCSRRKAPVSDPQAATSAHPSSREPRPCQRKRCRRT

[3] = molecular target: HA-NS5A (HCV JFH-1 nonstructural protein 5A), full-length NS5A (HCV genotype 2a, strain JFH-1) (UniProt Q99IB8); assay: co-IP; HEK293T cells co-transfected (calcium phosphate, 36 h); lysate incubated with the indicated tag antibody or control IgG, then protein A/G agarose; washed with 15 mM Tris pH 7.5, 500 mM NaCl, 2 mM EDTA, 0.5% Triton X-100; western blot; remark: listed apart in the source
[4] = molecular target: GFP-E1 (HCV JFH-1 envelope protein E1 fused to green fluorescent protein) (HCV genotype 2a, strain JFH-1) (UniProt Q99IB8); assay: as above
[5] = molecular target: GFP-NS5A (HCV JFH-1 nonstructural protein 5A fused to green fluorescent protein) (HCV genotype 2a, strain JFH-1) (UniProt Q99IB8); assay: as above
[6] = molecular target: Flag-E1 (HCV JFH-1 E1), full-length E1 (HCV genotype 2a, strain JFH-1) (UniProt Q99IB8); assay: as above
[7] = molecular target: HA-NS5A (HCV JFH-1 nonstructural protein 5A), full-length NS5A (HCV genotype 2a, strain JFH-1) (UniProt Q99IB8); assay: co-IP; Huh7 cells co-transfected for 48 h; lysate immunoprecipitated with anti-HA, anti-Flag or anti-Myc antibody; western blot
[8] = molecular target: Flag-E1 (HCV JFH-1 E1), full-length E1 (HCV genotype 2a, strain JFH-1) (UniProt Q99IB8); assay: as above

SPSB2-SPRYD1 (1-122aa), N-terminal portion of SPSB2 (from UniProt Q99619 1-122) (domain or fragment)
binding [1]: no binding

Myc-SPSB3 (from UniProt Q6PJ21 1-355)
binding [1]: binds

NS5A made by HCV JFH-1 infection (from UniProt Q99IB8 1977-2442)
binding [2]: binds

SPSB2-DSPRYD1 (123-263aa) (from UniProt Q99619 123-263) (domain or fragment)
binding [1]: binds

SPSB2-SPRYD2 (123-221aa), C-terminal portion of the SPSB2 SPRY domain (from UniProt Q99619 123-221) (domain or fragment)
binding [1]: binds

B1: Myc-SPSB2 (SPRY domain- and SOCS box-containing protein 2), full-length (protein, UniProt Q99619 1-263)
chain: MGQTALAGGSSSTPTPQALYPDLSCPEGLEELLSAPPPDLGAQRRHGWNPKDCSENIEVKEGGLYFERRPVAQSTDGARGKRGYSRGLHAWEISWPLEQRGTHAVVGVATALAPLQTDHYAALLGSNSESWGWDIGRGKLYHQSKGPGAPQYPAGTQGEQLEVPERLLVVLDMEEGTLGYAIGGTYLGPAFRGLKGRTLYPAVSAVWGQCQVRIRYLGERRAEPHSLLHLSRLCVRHNLGDTRLGQVSALPLPPAMKRYLLYQ
binding [3]: binds
binding [4]: binds
binding [5]: binds
binding [6]: binds
binding [7]: binds
binding [8]: binds

B2: Myc-SPSB4 (protein, UniProt Q96A44 1-273)
chain: MGQKLSGSLKSVEVREPALRPAKRELRGAEPGRPARLDQLLDMPAAGLAVQLRHAWNPEDRSLNVFVKDDDRLTFHRHPVAQSTDGIRGKVGHARGLHAWQINWPARQRGTHAVVGVATARAPLHSVGYTALVGSDAESWGWDLGRSRLYHDGKNQPGVAYPAFLGPDEAFALPDSLLVVLDMDEGTLSFIVDGQYLGVAFRGLKGKKLYPVVSAVWGHCEVTMRYINGLDPEPLPLMDLCRRSIRSALGRQRLQDISSLPLPQSLKNYLQYQ
binding [3]: binds
